# Reference: the supplement of paper PMC11417369
# ± gives the standard deviation of the averaged measurements. The list shows a part of the results.
# Tested on: PfAP2-G AP2 domain (GST-tagged)
# Test: gcPBM binding intensity (ln(normalized median fluorescence intensity)); higher = stronger DNA binding
# In short: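 GST-fused DNA-binding domains of P. falciparum, expressed in E. coli, were applied at about 25 μg on average for 1 h to an Agilent 4 × 180k array of primer-extended double-stranded 36-bp intergenic genomic probes and negative controls. Binding intensity is the highest Masliner-normalised natural-log median intensity across replicate spots of either probe orientation, measured with Alexa488 anti-GST antibody and a 488 nm scan.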
row,Sequence,gcPBM binding intensity (ln)
1,TAATTATAATAAATATTCATATGTTCAAATATATAT [CACACA_negctrl_site151],9.715 ± 0.007
2,TGTTTTATTTTTTTTGTGCACATACCTTTAGCATCA [GTGCAC_site9812],10.5 ± 0.14
3,AAATAAATATAAATAAATAAATAAATAAATATATAT [CACACA_negctrl_site827],9.68 ± 0.23
4,GCTCTTTTGTTATGGTGTACCCTCCATGTAACATAA [XGTACX_site91],11.4 ± 1
5,TTAATAATTCTTAAAAGTACATAACTTTTTTTTTTT [XGTACX_site751],11.1 ± 0.68
6,TCTTACGGATTCATTGTGCACATATATATATATATA [GTGCAC_site9896],10.7 ± 0.36
7,TTTGTTGACAGACACACACACATACATATATATATA [CACACA_site2288],10.2 ± 0.22
8,TATAATAATATAATGGTGCATGTATATAACCATATA,10.3 ± 0.16
9,TATATATAATTCATACATTTTAAATATATTTATTTA [CACACA_negctrl_site840],9.77 ± 0.042
10,TTTTAAAAACGGCATGCATGTAATACATGGAAGGAA [TGCATGCA_site480],10.17 ± 0.085
11,TTTAAAAAAATTCATGCACACGAAATAAAAAGCACC [CACACA_site8214],10.5 ± 0.35
12,TCTTTTATGCACATTGAGTAAACAACATATTTTTAA [TGCATGCA_negctrl_site561],10.1 ± 0.21
13,ATTTTTATAGAAATATGTACACAATATGTATATATT [XGTACX_site7993],11.3 ± 0.9
14,TTAATATAGATATAACCACACACATACATCTAATTC [CACACA_site8519],10.09 ± 0.078
15,TTTTTTATTAAAAGTAGTACACATGAAAAAAAAAAA [XGTACX_site5524],11.8 ± 1
16,TGTATTTTTAACATATGTACGAATAGCACGTGTTAT [XGTACX_site3640],10.9 ± 0.58
17,TAAAAATGGGAGGGGTGTACTACACAATAAAATTAT [XGTACX_site5641],11.6 ± 0.95
18,ATTTTTTTATACAATTTTATATATTAAATATTATAA [GTGCAC_negctrl_site86],10.1 ± 0.46
19,TATTTTATATGATAGGTGCATTTTTTTTTTTTTTTT [GTGCAC_site9757],10.4 ± 0.48
20,CTTGACCCCCTTTGTTGTACTGACATTTGTGAGCTT [XGTACX_site591],11.3 ± 0.86
21,ATTTTTTCAAAATGGAAAACTTATCAGTGAAAAAAA [CACACA_negctrl_site1087],10.1 ± 0.085
22,ATATACATTCAAGGCTGTACACTATATTTTTTTTTT [XGTACX_site6514],11.1 ± 0.63
23,ATATGTATTGGAGTGTGTACATATATATATATTTAT [XGTACX_site5633],11.4 ± 0.89

row,Sequence,gcPBM binding intensity (ln)
1,TTAATAATGTTTTATTGTACTTTTTTGTGGGTTTAT [XGTACX_site5670],11.3 ± 1
2,GTGCTACATCATATGTGTACATATACCAAACTGTAT [XGTACX_site8233],11.3 ± 0.7
3,TTTGTGTAAAGAATCAGTACATATAATATATATATA [XGTACX_site1972],10.9 ± 0.74
4,TATAATATATTTTGATGTACAAATATATTATATATA [XGTACX_site8633],10.8 ± 0.7
5,ATAATATATTTTTGAACACACAATATATATATATAT [CACACA_site4124],9.97 ± 0.16
6,ATATAAATATGACACACACACAAAAAAAATAAAGAC [CACACA_site6208],10.3 ± 0.2
7,TTGATAAAACGTTATGCACACGTACGTGGGTATTTA [CACACA_site8445],11.3 ± 0.61
8,TATAAAATTATTAAACAAGAAAATTTTAGGTAATAC [TGCATGCA_negctrl_site568],9.895 ± 0.064
9,TAAAGTATTACAACCACACACACACCCATATATTAT [CACACA_site4159],10.4 ± 0.37
10,AGTATACACGAACACACACACACATATATAAATATA [CACACA_site6913],10.1 ± 0.15
11,TAAGTGTATGTATATAAACACACATACATATATATA [CACACA_site8397],9.905 ± 0.007
12,TAATTTAAAAATTCCTGTACTCAGTTTTTTCTATTT [XGTACX_site4961],11.3 ± 0.97
13,AGTAGATATTATTATAGTACTTTTTATTTTATATTT [XGTACX_site1551],11.1 ± 0.59
14,GGAATTCATATTAATTGTACATTTAAAGATAGATGA [XGTACX_site3279],10.8 ± 0.46
15,GAAGACAATTATATGTGTACATATATATACATATAT [XGTACX_site4630],11.3 ± 0.76
16,AAAATTTATGGAAGGTGTACTGTTAATTATGTATAT [XGTACX_site6446],11.3 ± 0.79
17,ATATTAAAGATATATACACACATATTTATAAATATA [CACACA_site7127],9.825 ± 0.078
18,TAATATGTGGACTTTACACACTTGTTTTAAAATTCT [CACACA_site4605],10.8 ± 0.47
19,ATATTTTACATATTTGCACACATATATTTATATACA [CACACA_site855],10.12 ± 0.071
20,ATATATATATATATATGTACTTATTTATTTATTTAT [XGTACX_site4645],11.2 ± 0.95
21,TACCTACCTTTACGGAGTACACAATAATAGTTATAA [XGTACX_site6593],11.6 ± 0.95
22,TTTATTTATCTTTACGCACACACTTGCATGTACAAA [CACACA_site1118],11.1 ± 0.81
23,ATATAAAAATAATAGAGTACAAAAAAAAAATGTATA [XGTACX_site7054],11.3 ± 0.66

row,Sequence,gcPBM binding intensity (ln)
1,GATGATACGATTATCACACATTTATACTTTCTACAT [CACACA_site5669],9.945 ± 0.007
2,TGTATACATTATTAAGTGCAAGTAGGGAAAAAAAAA,10.2 ± 0.2
3,TATATATATATATGTGCACACATAATAAAAAAAAAA [CACACA_site3830],10.7 ± 0.79
4,TAAACATATACACGTACATGCAACGGATTTTTTTTT [TGCATGCA_site70],11.5 ± 0.99
5,CAAGAAAAGAAACACACACACATATATATATATATA [CACACA_site3881],9.88 ± 0.23
6,ATATAACTTTTAAAAGCATGCAAATATTTACTCAAT [TGCATGCA_site396],9.98 ± 0.014
7,ATTACAATTTTAATAGTGCATTTTTATATATTTCTA [GTGCAC_site9918],9.64 ± 0.28
8,ATATGATTAATTAAGTGTACGTATTTATAATTATAA [XGTACX_site5783],11.7 ± 1
9,GTCTCGATAATGAAAAGTACAAAATAAAAATAATAA [XGTACX_site6471],11.2 ± 0.8
10,TATAAGTATTAATACACACACAAAATAATAAAAAAA [CACACA_site3481],10.12 ± 0.071
11,AAAAATAAAGGATATACACACTAATTCTATAAATAT [CACACA_site7344],9.95 ± 0.085
12,TTGTATGAATTTATTTTTATTGATAATTAATATGTA [TGCATGCA_negctrl_site143],9.58 ± 0.099
13,GAAATGTCATATAATAGTACACACATGAAAATATAA [XGTACX_site6838],11.4 ± 0.91
14,TATGATTAATTACCACAATTGACAAAAAAAAAAAAA [CACACA_negctrl_site336],9.9 ± 0.48
15,TAAAGAATAATACATTCACACAATATTATAAAAATA [CACACA_site5986],9.83
16,AATAAACATAGATGTACACACATATACAGATATATA [CACACA_site5570],11.5 ± 1
17,ATACAAAAGGGGAATACACACACATATATATATATA [CACACA_site8694],10.3 ± 0.28
18,TCTCATATATTGAATTGTACATATGTTAAAATATAG [XGTACX_site6764],10.8 ± 0.58
19,TATTAATTTTTATACGCATGTGTATAGTAATATATA [TGCATGCA_site1010],10.2 ± 0.22
20,TTGTTCTATATATATGCATGCACGTATGTTAAATTA [TGCATGCA_site659],10.3 ± 0.33
21,AAGAAAAGAACAAGAGCATGCACTTAATAAGAATAA [TGCATGCA_site818],9.76 ± 0.15
22,TTAATATATTTTAAAAGTACATAATATTATTTTTTA [XGTACX_site3642],11.1 ± 0.78
23,ATATTTTTATGTACTTCAAAAAAAAAGAAAAACAAA [CACACA_negctrl_site970],11.5 ± 1

row,Sequence,gcPBM binding intensity (ln)
1,CTCTATTGTTAAAAGGTGCTTTTATGATTTTATATA [GTGCAC_site9409],9.89 ± 0.17
2,AAAAAAAACAGACACACACACATACAAAATATATAT [CACACA_site1449],10.1 ± 0.26
3,TTTAAATACAGACATACACACATACACAGACATATA [CACACA_site4460],10.2 ± 0.18
4,ATAATTTCACAAATAGTGCAAAAATTAGTAAGAATA [GTGCAC_site9648],10.1 ± 0.2
5,TTTTTTTTCTATGTGGTGCACATTATTTTTTTTTTT,10.5 ± 0.3
6,TTTTATAAATATTATACATGCATAATGATAAAAAAA [TGCATGCA_site927],9.845 ± 0.078
7,TATGTAACCTGTTTTACACACCCCCACCCCCCTCTT [CACACA_site319],11.5 ± 0.79
8,AAGAGGTTAATGAAATGTACACATATATATATATAT [XGTACX_site1861],11.4 ± 0.82
9,TATAGTTTTGAAAACAAACACACAAAAAAAAAAAAA [CACACA_site1691],9.86 ± 0.39
10,AAATATATGTATATATGTACATATGTGTGCTATCAT [XGTACX_site1604],11 ± 0.57
11,TATATATATATATGTAGTACTCAATATTGTAGATTA [XGTACX_site3856],11.3 ± 0.88
12,GTTTACATTTTAAGAAGTACAAAATTTATGGTTAAA [XGTACX_site450],11.3 ± 0.8
13,TAATTTTTTTTTAATTGTACATGTGAATATATTTCA [XGTACX_site4115],11 ± 0.67
14,GCCATAATATGACATACACACACAAAAAAAAAAAAA [CACACA_site8353],9.99 ± 0.4
15,AAATTTCCATTTGGGTGTACATGTGAAACTACAAAG [XGTACX_site208],11.4 ± 0.97
16,ATACATACAAAAATTTGTACATATTTCCAATAATGT [XGTACX_site2658],11 ± 0.51
17,GAAAAAACGAAAAAAATACACACCTGAAAAGATATG [CACACA_site887],9.95 ± 0.028
18,AAAAATAAACAAAATTGTACACATTACATACATATA [XGTACX_site966],11.2 ± 0.61
19,AAACAATTGAATAAATGTACAGATACATTTTTTTAA [XGTACX_site5386],11 ± 0.64
20,TATTTATCTATTTTGTTATATAATAAAATAAAATAA [CACACA_negctrl_site281],9.88 ± 0.38
